# According to the supplement of paper PMC11417369:
# ± gives the standard deviation of the averaged measurements. The list shows a part of the results.
# System: PfAP2-EXP AP2 domain (GST-tagged)
# Assay: gcPBM binding intensity (ln(normalized median fluorescence intensity)); higher = stronger DNA binding
# In short: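 After 1 h on an Agilent 4 × 180k array of primer-extended double-stranded 36-bp intergenic genomic probes and negative controls, bound GST-tagged P. falciparum DNA-binding domains were detected with Alexa488 anti-GST antibody and scanned at 488 nm. The domains had been expressed in E. coli, and binding took place in 1× PBS with 1% milk, 0.2 mg/ml BSA, 0.5% salmon testes DNA and 0.03% Triton X-100. Binding intensity is the highest Masliner-normalised natural-log median intensity across replicate spots of either probe orientation.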
row,Sequence,gcPBM binding intensity (ln)
1,TAGCTTATAAGATATGCACACACAACACTTACAAAA [CACACA_site8174],8.59 ± 0.46
2,TCTACAATTTTAATTACACACTATAAAAAAGAAAGA [CACACA_site5624],8.57 ± 0.45
3,ACTTGTAAGAGACACACACACACACGGATATAAATA [CACACA_site6517],8.91 ± 0.53
4,ACACATATATTAAATGTGCACTGAAATATGCATATA [GTGCAC_site9936],8.85 ± 0.14
5,TTATTTTCCCTTTGTGCATGCAGTTTACTTTTTGTG [TGCATGCA_site993],10.4 ± 0.64
6,ATATATGTATATTTATGTACGTATTCCTGTATAGTC [XGTACX_site5763],8.57 ± 0.3
7,CAAAATAAAAATAACACACACATTTATTTATATACA [CACACA_site6679],8.47 ± 0.42
8,ACACAAGCACACAAATGTACATATATATATATATAT [XGTACX_site5146],10.2 ± 0.13
9,GGAAAAAAAAATAAATGTACGAATTAACATATCAAA [XGTACX_site5653],8.48 ± 0.42
10,GTAACATTTTAAATATATACATATAATGTATTTATA [GTGCAC_negctrl_site344],8.21 ± 0.35
11,ATTAATTAAAAGGGAACACATAGAAATTATAAAACA [GTGCAC_negctrl_site420],9.11 ± 0.4
12,ATATATATATTATGGGGTACAAACATCAAAAGATTT [XGTACX_site3944],9.38 ± 0.26
13,TGTTGTATCAATTTTTGTACATAACACATATGTATA [XGTACX_site3666],8.26 ± 0.23
14,ATTAAACCGTGGGAGCACACACACACACACACACAT [TGCATGCA_negctrl_site72],8.8 ± 0.45
15,TATAAAAGATTGGAATGTACATAAGAAAAAAATATA [XGTACX_site5028],9.05 ± 0.46
16,TGTGTAGGGGATATTCTACTTTAAAAATAAATATAT [CACACA_negctrl_site207],8.75 ± 0.38
17,TTCAAGATTTATTATACACACATATTAATATTTATA [CACACA_site6413],8.67 ± 0.35
18,AATCATATTAGTATGGTGCAACATATATAAATATAT,8.59 ± 0.26
19,GGCCCAACTTCTTCTGACGAAAACGTAAATTGTGTG [XGTACX_negctrl_site533],8.73 ± 0.49
20,CCACATGATATGATTACACACATATATATATTTACA [CACACA_site164],8.62 ± 0.41
21,ATTCTATTATAATACACACCCAAATATTAAAAAGAT [CACACA_site2960],9.06 ± 0.49
22,GATGTTGCAAAATTCTGTACATATAAATGTATACAT [XGTACX_site5009],8.69 ± 0.3

row,Sequence,gcPBM binding intensity (ln)
1,TATTATATATATATATGTACATATATATGCTAAAAA [XGTACX_site5297],8.53 ± 0.38
2,TAATGAATTTAAATTTTAAAATTAATAAAAAAAATA [TGCATGCA_negctrl_site15],8.37 ± 0.49
3,CAAAATGTTTCTCATTGTACACAAAATAAATGTCCT [XGTACX_site6798],8.32 ± 0.28
4,ACATTTACAAGGAAAGTGCATATAAGAAAAATAAAA [GTGCAC_site9587],8.95 ± 0.25
5,ATTAGTAAATTTATATGTACACATTGTTATTTTATA [XGTACX_site1177],8.68 ± 0.26
6,ATACATATGTATATTTGTACATATTAGACAATCTTA [XGTACX_site6706],8.36 ± 0.35
7,TTATTCATTTTTATTTGTACATAATTATATGAAATT [XGTACX_site6389],8.59 ± 0.35
8,TTTTATATTTTATGCACACTTATAAGAAATATGTAC [CACACA_site3040],8.905 ± 0.064
9,ATAATATATATATAAACACACAAAAAAAATTATATA [CACACA_site1534],8.69 ± 0.37
10,TTATGTATTCATTTTTTTTAAGCACCCCAAAATGAT [CACACA_negctrl_site1344],8.93
11,TATTTATTAAAACACACACACACACCCACAAAATAA [CACACA_site241],8.87 ± 0.57
12,ATTTTTTTTTATGATACACACTTGGATAATTAAAAC [CACACA_site4473],8.46 ± 0.39
13,AAGATTAAAAATTGCACACAAAAATATATTTTCTAT [CACACA_site1305],8.37 ± 0.36
14,AATTTCCTTTTTTAAAGTACACAAAAGTTCACTTTG [XGTACX_site4460],8.38 ± 0.4
15,AAATTATATCATTTATTTTTTTATATTTTTTATATT [CACACA_negctrl_site685],8.4 ± 0.28
16,TATAATTTATTAAGGGGTACATATATTTCATGATAA [XGTACX_site5141],8.78 ± 0.51
17,AAATTATATCAATGTTGTACATATTATTTTTTTCTC [XGTACX_site5948],8.4 ± 0.34
18,AAAAAAAAAAATATCACACACACATAAATATAAACC [CACACA_site2278],8.77 ± 0.49
19,AAAAAAAAAAAAAGGTGTACAAGTATAATTACATAA [XGTACX_site534],8.52 ± 0.52
20,TATTTATTGTGATACTTTTATTGTTTAATGATTAAA [CACACA_negctrl_site495],8.4 ± 0.33
21,TAGTATAAAATTATGTGTACACAAATATAACTTTTC [XGTACX_site5971],8.61 ± 0.18
22,TCGTAAACATATTGAAAAATATAAAAAGGGGTAATA [CACACA_negctrl_site619],8.53 ± 0.53

row,Sequence,gcPBM binding intensity (ln)
1,TGTACCTTATTAATATATTTAACTCGCCTTATATAC [XGTACX_negctrl_site289],8.9 ± 0.44
2,ATTGGGTACAAATACACACACATATATATATTAATA [CACACA_site2376],8.68 ± 0.4
3,TTGTTAAAAGTATCCATTCTTTATTACTTTTGTTTA [XGTACX_negctrl_site532],8.52 ± 0.46
4,TAAAAAAAATACAAAAGTACACAAAATTATACGTTA [XGTACX_site4656],8.51 ± 0.34
5,AAATAAATACACATATGTACATATTTTATTTTATTT [XGTACX_site2357],8.55 ± 0.39
6,TTAAGATATGTATATCGTACATGACATTAAAAATTT [XGTACX_site3352],8.4 ± 0.59
7,AATGGTATAATCAATACACACATAATATATATATTG [CACACA_site1658],8.49 ± 0.32
8,AATCAAAAATCAAACGCATGTAGTATAATAGATAAG [TGCATGCA_site753],8.98 ± 0.39
9,CAAATATAAATATATACATGCATCTATCTATATAAA [TGCATGCA_site369],8.35 ± 0.2
10,AAATTGTAGCACCAAGCATGCTAAAAGGACATATGA [TGCATGCA_site717],9.01 ± 0.33
11,ATCTAAATAATATATATATATAATATTAATAATATA [CACACA_negctrl_site1620],8.21 ± 0.47
12,TTTTTATTTATATATATATATATATATTATATATAA [CACACA_negctrl_site1654],8.34 ± 0.36
13,ATATATTATATAATATGTACATAATAAAATTTAAAT [XGTACX_site1900],8.72 ± 0.27
14,CTTGTCATTGGGCACACACACATGTATAGGTTATTA [CACACA_site3058],8.63 ± 0.24
15,GAGTAAACATATATATGTACATAAAGTTAACATTGC [XGTACX_site2225],9.11 ± 0.35
16,ATTTTTTTTCATATAACACACACACTAATATAATGT [CACACA_site9226],8.71 ± 0.32
17,TGAACACCCACAAATACACACAAAAAAAATAAATAA [CACACA_site248],8.54 ± 0.64
18,AATAAATAAATATATACACACATATCTGTCTACATA [CACACA_site5708],8.26 ± 0.46
19,GGGACAGGACGAAAAAATAAATAAATAAATAAAAAA [CACACA_negctrl_site155],8.65 ± 0.53
20,GTAAAAAAATAGCACACACACAAAAACACGCACAAA [CACACA_site6723],8.82 ± 0.32
21,AATAATTGAAAAACACAAAAATGATTTTCCATAAAT [CACACA_negctrl_site1555],8.19 ± 0.35
22,ACAAGATCTAGATACACACACATATCTCTCAATCTA [CACACA_site6453],8.8 ± 0.6

row,Sequence,gcPBM binding intensity (ln)
1,GGAATAGTAATATATACACACAAATACAGATATATA [CACACA_site4213],8.78 ± 0.28
2,AATTGAATTTTAAAAGAAAAAAAAAAAAAAAAATAA [XGTACX_negctrl_site195],8.22 ± 0.53
3,TGGAGGTCAGTTCACAGTACCCAGAAACTCTACGGA [XGTACX_site4927],8.43 ± 0.61
4,TTTTTTCAATTTTTTTTAAATAAACCACAAAAAAAA [CACACA_negctrl_site1701],8.22 ± 0.4
5,AAACTATAATATATTACACACATATATTTTATAAGT [CACACA_site6460],8.3 ± 0.38
6,TAATGTAAAATTTAGAGTACATAAAAAATTGGATGA [XGTACX_site7225],8.68 ± 0.33
7,AAATAAAAAAAGAAACGTACATATATTGGTTTCGTC [XGTACX_site3510],8.61 ± 0.43
8,GGTAATTTTTTTTAAATACACACTGAAATGTGAATT [CACACA_site564],8.35 ± 0.26
9,AAAAAAATAAGTATTGAACAATTAAGGAAAAACATG [GTGCAC_negctrl_site464],8.89 ± 0.47
10,CTTATAAAAAAAAAAACATGCAACAGTAAAGAACAA [TGCATGCA_site892],9.13 ± 0.4
11,AACATACATAAACACACACACACACCCACAGAGACA [CACACA_site4430],8.66 ± 0.57
12,CATACAGATATATATACACACATACAGATAAATACA [CACACA_site4592],8.79 ± 0.4
13,AAGGATATAACATACACACACACACCGATATATATA [CACACA_site6136],8.81 ± 0.34
14,TATTTTTTTTTTATATGTACATAATTTCAAATAAAT [XGTACX_site7747],8.62 ± 0.48
15,ATATATCATATTATAGTGCATTTATAATAATATTAT,8.58 ± 0.24
16,TATTATCTGTAGTGTACACATATTATATAGTACTTT [CACACA_site4582],8.86 ± 0.24
17,ATAACGATATATGTGCGTACTTATAGAATAAGCAAA [XGTACX_site6743],8.68 ± 0.35
18,AAAATTATATATTATTGTACATAAAATTTTGACATA [XGTACX_site4886],8.43 ± 0.38
19,ATATATATATATATATGTACATATATGTATACCTTA [XGTACX_site6791],10.1 ± 0.39
20,ATAAATACTAGGCACACACACATATATATATATATA [CACACA_site2080],10.1 ± 0.47
21,CAATAGTTCTTATGGGTGCAAACCACATATATATAA [GTGCAC_site9606],8.695 ± 0.049
22,TTTATTTATCTGTATACACACTTTAATGAAAAGTTG [CACACA_site5400],8.72 ± 0.42
